# Laboratory results as given in the supplement of paper PMC11417369.
# Some of the results follow.
# System: PfSIP2 AP2 domain 1 (GST-tagged)
# Assay: gcPBM binding intensity (ln(normalized median fluorescence intensity)); higher = stronger DNA binding
# Outline: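 Alexa488 anti-GST antibody, scanned at 488 nm, detected GST-tagged P. falciparum DNA-binding domains that had been expressed in E. coli and incubated for 1 h on an Agilent 4 × 180k array. The array carried primer-extended double-stranded 36-bp intergenic genomic probes and negative controls. Binding intensity is the highest Masliner-normalised natural-log median intensity across replicate spots of either orientation of each probe.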
row,Sequence,gcPBM binding intensity (ln)
1,TATTTGTTTTTATATAGTACATAAATATATATATAT [XGTACX_site7834],8.74
2,AAAATAAATATGAACACACACATTTATGCCTTTAAA [CACACA_site1271],6.81
3,AGAGATATAAGAAAAGCACACACACCCAAAAAAAAA [CACACA_site8917],6.91
4,TATATACAAAAAATATGTACATATATATATATATAT [XGTACX_site3497],9.34
5,AAAAAATAAATAAATACACACACACTAATATATATA [CACACA_site8488],7.67
6,ATTATTTATATTATGGTGCATAATTTTGGGTTTCTT,10.2
7,TCAGAGTGAAGTTATACACACATGGTTTTTTTTTTT [CACACA_site2116],6.73
8,AGAGAGAAAGCTATAACATGCAACAATTTTTAGAAA [TGCATGCA_site95],6.61
9,AGGAGGATATTACACAGTACCCAGTAACTCTACGGA [XGTACX_site1998],6.67
10,AAGTATGCGTTATATACACACATACATTTATATATC [CACACA_site6207],6.91
11,TTTTTTTGATAAAAGGTGCTACAAGATGAATACATA,8.51
12,TTTTTTTTTTTAAATACATGCATGTCCTATTTAAAT [TGCATGCA_site494],6.74
13,ATAAATAAAAAAAAAAAAAAAAAAAAAAAAAAAATA [CACACA_negctrl_site1064],6.86
14,GTTGTATAAAATAATACATGCATGTCCTACATATAT [TGCATGCA_site162],7.16
15,GTAATATATTTTTATGGTACACGAACTAGCCAAAAA [XGTACX_site6307],7.22
16,TAATATATTTATAAGTGTACACATTATATAAATCCC [XGTACX_site8875],7.28
17,AGTAATAACTATATATGTACATATATATATTATTAG [XGTACX_site1113],6.98
18,CCGCATTTTACAGACACACACAATTTATATTACGGT [CACACA_site6974],7.16
19,AAAGATGAATTTTTTACACACACCATTTTATAATAT [CACACA_site3676],6.98
20,TAAAATTTTGTTTGTTGTACTTATTTTCGTGTCAAC [XGTACX_site8277],7.03
21,AAAAGTATAATAAATTGTACTAACAAATATTTATGT [XGTACX_site7721],7.01
22,AAAAAAAAAAAAAAAAAAAAATATATATATATATAT [GTGCAC_negctrl_site426],9.74

row,Sequence,gcPBM binding intensity (ln)
1,AATGTAAAACCTCCTACACACACCAATTAACTATTC [CACACA_site2112],6.91
2,TACTTATCGTTAAATTGTACTAAAAAATATTTTTCT [XGTACX_site4665],7.01
3,TTATAATAAAAGGCTTTACAATTATTAAACAAATAA [GTGCAC_negctrl_site480],6.75
4,AAAAAAGAAGAGCACACACACATATATAAATATAAA [CACACA_site631],6.9
5,GCCATTGTACCATCCACACACATATATATCTGTATA [CACACA_site5490],7.54
6,TGGTATTAAGGAGAGGGTACAAAAAAAAAAAAAAAA [XGTACX_site1668],7.04
7,TTCTAATATTTACATAATATATAGAAATATAAAGGT [XGTACX_negctrl_site504],7.4
8,AAATATAAACTCAGCACACAAACATATATATGTCAT [CACACA_site4004],6.91
9,ATGGTATAAAAAAATACACACTTATATATATTCTTA [CACACA_site4427],6.86
10,TTTTTTTTTTTTTCTCGTACAAAATAATACCTTTTT [XGTACX_site3867],6.92
11,GTAGACATTATAATGGTGCAAAAAAATTAACAAAAA [GTGCAC_site9891],10.5
12,AGGGAATATTTTTATGCATGTGCTTACACATTACAA [TGCATGCA_site830],7.11
13,AAAAAAAACGGACACACACACATACAAAATATATAT [CACACA_site4910],7.22
14,AAGAAAAGCATAGATGCACACATATATATATATATA [CACACA_site8675],9.61
15,GGAACTTAAAAAAAATGTACTTATAAAAAAGGAAAT [XGTACX_site8186],7.04
16,AACATGCAAACATGCACACAGAAAAAAAAAATATAT [CACACA_site1565],8.15
17,TTACACATACATATGTGGGAAAATATTGCTACATAT [CACACA_negctrl_site463],6.89
18,TATATATATATATATACACACATATATATATTTTTC [CACACA_site3983],9.83
19,ATCATTATATTATGGTGTACCCATATATAATTATCA [XGTACX_site551],7.11
20,CATTAAACCGTGGGAGCACACACACCCACCCACCCA [CACACA_site8000],7.26
21,AATTTAAAGAATTGTAGTACAATGAAATATATATAA [XGTACX_site7970],7.05
22,AATACCTATGGAATTAATAATATGTGTACAGACACA [TGCATGCA_negctrl_site547],7.02

row,Sequence,gcPBM binding intensity (ln)
1,AACAATGGATTATTCACACATAAAAAAATTCACATT [CACACA_site5437],6.79
2,AAAAAAATATATATATGTACATAACTTTGTTGTGAT [XGTACX_site5243],7.17
3,TGTTAAATTATTTATCAGATTATTATTTGTAAATAA [CACACA_negctrl_site1535],6.7
4,TTTGAACATTTTGCAAGTACAAAAAAATAATATATC [XGTACX_site8079],7.08
5,AAGAAAAATAATTAGGGTGAAAATATATAGAGTAAA [TGCATGCA_negctrl_site590],7.06
6,CAATTCTTAAGTTCTTGTACGAAAAACGACAATTTA [XGTACX_site3890],6.75
7,ACACATATATATATATATATATATATATATATATAT [CACACA_negctrl_site1766],9.44
8,GGTAATAATATGCATAGTACATAATATATATATATA [XGTACX_site6793],9.41
9,TATTATATAAAATATTTTATTATATCATCTTCTCTA [XGTACX_negctrl_site319],6.77
10,ATAATATAAATAATTATACACACTTAATATATATAT [CACACA_site2782],8.43
11,GTATGTATGTATGTATGTACGTATTTATTTATTTAA [XGTACX_site726],8.09
12,AAAAATGGTGTTAACACACACATATAAATAAATATA [CACACA_site6412],6.87
13,TAAATGTGAAATTTTATATTTTATATAATATACAAT [CACACA_negctrl_site76],6.75
14,AAGGATCACCCACAAACACACATATATATATATATA [CACACA_site559],9.78
15,AACATAAGTAATATTTGTACATATATAATAATATAT [XGTACX_site5123],6.95
16,ATCATATTTTTATGTGTGCACTTTTTTTTTTTTTTT [GTGCAC_site9555],10.8
17,CTCTTATACATATTCCTGCACTTATTTTTAAAAACA [GTGCAC_site9620],8.37
18,TAATTTTATATAAATTGTACAAAAATATTTTATTAA [XGTACX_site7166],7.04
19,TAAAATATACAAATTTGTACATATATATGTATGTAT [XGTACX_site1127],7.24
20,TGCAGGTGTTATTCACGTACGCATTTGATTAAAAAA [XGTACX_site7743],7.01
21,ATTAGAAAATAAAATAATAAATAAAATAAAAAAAAA [CACACA_negctrl_site409],6.65
22,ATAAAAACATAAAAATGTACATATATATATATATAT [XGTACX_site7165],9.51

row,Sequence,gcPBM binding intensity (ln)
1,AATATTAGGTTATGTAGTACATAACAATAATTATAC [XGTACX_site5733],7.26
2,TTTTATTTTATTCAATTTTTACTTTTATAAAAATAT [GTGCAC_negctrl_site578],6.95
3,ATGTATATGCAAACATGTACATATATAAACATATAT [XGTACX_site4159],6.86
4,GTGTTGGGAAAAGGCATGCACTTTTTTTTTTTTTTT,9.34
5,ATAAAGAATATAAATACACACTTAAATATATATTAT [CACACA_site6071],6.82
6,AAGGAATATGTATATACACACAGGTACATATTTATA [CACACA_site6344],7.05
7,CACAAAAATTTATACACACACATATAAAATATAGAT [CACACA_site6218],6.96
8,TTCACTATACAAAGGTGTACTTAATTTTGTCCCATT [XGTACX_site7483],7.15
9,AGTTATTACACACAAACATGCATTAATATCAAAAAA [TGCATGCA_site63],7.3
10,AATTCACATGTGAACTAAAAGAATATTATATATATA [CACACA_negctrl_site1632],8.12
11,AAATATATATATAGTACATGCAGTAGATAATTTAAT [TGCATGCA_site299],7.16
12,ATTAGGTATTTTTTTTGTACATATTATATAATGTGA [XGTACX_site3815],7.02
13,AATGATCAGATATACACACACACAAAAAAAAAAAAA [CACACA_site7806],6.99
14,GTAAATAAATAAATAAATAAATATATATATATATAT [CACACA_negctrl_site1737],9.32
15,AATAAAAAAAAATTCACACAAAGTTAGATTAACTAT [CACACA_site4224],6.6
16,TTTATATTTAAAAGGATGCACTACAAATTCTAAATA,9.22
17,TATCCTTATATTTGCACACACACACCCTAAAATGAA [CACACA_site1029],7.75
18,CTACAATATCTTTAAAGTACTTTTATATAACTACCA [XGTACX_site6119],7.24
19,AAGACAAATATGAAGAGTACATTTATATAAAAATTA [XGTACX_site5142],6.85
20,AAAACAAACAGACACACACACATATTTATATTTATA [CACACA_site7681],7.04
21,TTATATTAAACAAACACACACATATAAATATAAATA [CACACA_site7174],7.09
22,ATTTTTTCCAATTCTTTACCTTAGAAAGGTGTTCAA [CACACA_negctrl_site1401],6.9
